Test systems include HCC-2998 colon; HCT-116 colon; KM12 colon; SF-268 CNS; NCI-H23 lung; NCI/ADR-RES ovarian; LOX IMVI melanoma; HT29 colon; OVCAR-8 ovarian; SW-620 colon; COLO 205 colon; RXF 393 renal; CCRF-CEM leukemia; NCI-H460 lung; NCI-H522 lung; KM20L2 colon; LXFL 529 NSCLC; SR leukemia; OVCAR-5 ovarian; SNB-75 CNS; CAKI-1 renal.
What all share (test): growth of human tumour cells (NCI), 48 h

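Values below derive from 48-hour exposures of cells grown in 96-well plates, with endpoints linearly interpolated between the two concentrations bracketing the appropriate inhibition level. At the GI50, growth is halved.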 For part of its entries the source gives two or more results. They are shown here; other results are not. An entry can have further records. Records of one sample usually come from different ranges of test concentrations, not given here; a value can be the end of its range.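 TGI marks complete inhibition of growth.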

Consider `CCOC(=O)Oc1cc2c(c(OC)c1OC)-c1ccc(SC)c(=O)cc1C(NC(=O)C(F)(F)F)CC2` (centres undefined), for which the TGI in the assay on HCC-2998 colon was 2 µM and 48.2 nM; in the assay with HCT-116 colon it was 7.1 µM and 11.1 nM; in the assay with KM12 colon it was 438 nM and 19.6 µM; in the assay on SF-268 CNS it was 6.72 µM and > 100 µM; with NCI-H23 lung it was 3.68 nM and > 100 µM; in the assay with NCI/ADR-RES ovarian it was 32.7 nM and 1.32 µM. The TGI in the assay on LOX IMVI melanoma is 1.54 µM and 18.9 µM; in the assay with HT29 colon, 5.76 nM and 13.4 µM; with OVCAR-8 ovarian, 118 nM and > 100 µM.

Consider `CO/C1=C\C(C)=C\C(C)C(O)C(C)C/C(C)=C/C=C/C(OC)C(C(C)C(O)C(C)C2(O)CC(O)C(C)C(C(C)C)O2)OC1=O` (centres undefined), for which the TGI in the assay with HCT-116 colon was 5.8 nM and 13 µM; in the assay on SW-620 colon, 41.3 nM and 15.5 µM; in the assay with COLO 205 colon, 52.7 nM and 11.5 µM; in the assay on RXF 393 renal it was 82.8 nM and 26.3 µM; with CCRF-CEM leukemia, 64.7 nM and 16.8 µM; with HT29 colon, 42.1 nM and 1.49 µM. In addition, the TGI in the assay on NCI-H460 lung is 22.9 nM and 14.4 µM; in the assay on NCI-H522 lung, 24.3 nM and 6.69 µM; in the assay with KM20L2 colon, 53.8 nM and 4.15 µM; with LXFL 529 NSCLC it was 6.45 nM and 12.1 µM; in the assay with SR leukemia, 41.4 nM and 15.1 µM; in the assay with OVCAR-5 ovarian it was 25.4 nM and 20.2 µM. The TGI in the assay with SNB-75 CNS is 64.6 nM and 15 µM.

For the compound `CCOC(=O)C(Cc1c[nH]c2ccc(N(CCCl)CCCl)cc12)(NC(C)=O)C(=O)OCC`, in the assay with CAKI-1 renal, the GI50 is 7.02 µM and 217 nM; the TGI was 41.3 µM and 705 nM.

These data come from PubChem BioAssay (NCI).
